# Data reported in the supplement of paper PMC8728848.
# The other results are listed elsewhere or left out.
# B1: Surfactant Protein D (Human); Neck + Carbohydrate Recognition Domain (NCRD) (Homo sapiens) (protein)
# chain: MLLFLLSALVLLTQPLGYLEAEMKTYSHRTMPSACTLVMCSSVESGLPGRDRDGREGPRGEKGDPGLPGAAGQAGMPGQAGPVGPKGDNGSVGEPGPKGDTGPSGPPGPPGVPGPAGREGALGKQGNIGPQGKPGPKGEAGPKGEVGAPGMQGSAGARGLAGPKGERGVPGERGVPGNTGAAGSAGAMGPQGSPGARGPPGLKGDKGIPGDKGAKGESGLPDVASLRQQVEALQGQVQHLQAAFSQYKKVELFPNGQSVGEKIFKTAQFVKPFTEAQLLCTQAGGQLASPRSAAENAALQQLVVAKNEAAFLSMTDSKTEGKFTYPTGESLVYSNWAPGEPNDDGGSEDCVEIFTNGKWNDKACGEKRLVVCEF
# Tests used:
# Assay in all cases: glycan array binding signal (z-score within array); higher = stronger binding
# Conditions in all cases: glycan notation: IUPAC condensed, linker removed; mutation: R343K
# Fuc(a1-2)Gal = biological target: Fuc(a1-2)Gal
# Procedure, shortened: (§1)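 Glycan array data were curated from 3228 arrays in the Consortium for Functional Glycomics database and kept only where the protein sequence was available. Glycan names were converted to IUPAC-condensed notation, and columns mapping to the same glycan were averaged. The binding signal is a within-array Z-score, averaged across arrays of the same protein sequence at different concentrations or buffers and across linkers. Negative Z-scores can be read as non-binding.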
# Fuc(a1-2)Gal(b1-3)GalNAc = biological target: Fuc(a1-2)Gal(b1-3)GalNAc
# Procedure, shortened: as §1
# [1] = biological target: Fuc(a1-2)Gal(b1-3)GalNAc(b1-3)Gal
# Procedure, shortened: as §1
# [2] = biological target: Fuc(a1-2)Gal(b1-3)GalNAc(b1-3)Gal(a1-4)Gal(b1-4)Glc
# Procedure, shortened: as §1
# [3] = biological target: Fuc(a1-2)Gal(b1-3)GalNAc(b1-4)[Neu5Ac(a2-3)]Gal(b1-4)Glc
# Procedure, shortened: as §1
# Fuc(a1-2)Gal(b1-3)GlcNAc = biological target: Fuc(a1-2)Gal(b1-3)GlcNAc
# Procedure, shortened: as §1
# [4] = biological target: Fuc(a1-2)Gal(b1-3)GlcNAc(b1-3)Gal(b1-4)Glc
# Procedure, shortened: as §1
# [5] = biological target: Fuc(a1-2)Gal(b1-3)[Fuc(a1-4)]GlcNAc
# Procedure, shortened: as §1
# Fuc(a1-2)Gal(b1-4)Glc = biological target: Fuc(a1-2)Gal(b1-4)Glc
# Procedure, shortened: as §1
# Fuc(a1-2)Gal(b1-4)Glc6S = biological target: Fuc(a1-2)Gal(b1-4)Glc6S
# Procedure, shortened: as §1
# Fuc(a1-2)Gal(b1-4)GlcNAc = biological target: Fuc(a1-2)Gal(b1-4)GlcNAc
# Procedure, shortened: as §1
# [6] = biological target: Fuc(a1-2)Gal(b1-4)GlcNAc(b1-3)Gal(b1-4)GlcNAc
# Procedure, shortened: as §1
# [7] = biological target: Fuc(a1-2)Gal(b1-4)GlcNAc(b1-3)Gal(b1-4)GlcNAc(b1-3)Gal(b1-4)GlcNAc
# Procedure, shortened: as §1
# [8] = biological target: Fuc(a1-2)Gal(b1-4)GlcNAc6S
# Procedure, shortened: as §1
# [9] = biological target: Fuc(a1-2)Gal(b1-4)[Fuc(a1-3)]GlcNAc
# Procedure, shortened: as §1
# [10] = biological target: Fuc(a1-2)Gal(b1-4)[Fuc(a1-3)]GlcNAc(b1-3)Gal(b1-4)[Fuc(a1-3)]GlcNAc
# Procedure, shortened: as §1
# [11] = biological target: Fuc(a1-2)Gal(b1-4)[Fuc(a1-3)]GlcNAc(b1-3)Gal(b1-4)[Fuc(a1-3)]GlcNAc(b1-3)Gal(b1-4)[Fuc(a1-3)]GlcNAc
# Procedure, shortened: as §1
# Fuc(a1-2)Gal6S(b1-4)Glc = biological target: Fuc(a1-2)Gal6S(b1-4)Glc
# Procedure, shortened: as §1
# [12] = biological target: Fuc(a1-2)Gal6S(b1-4)Glc6S
# Procedure, shortened: as §1
# [13] = biological target: Fuc(a1-2)Gal6S(b1-4)GlcNAc
# Procedure, shortened: as §1
# Fuc(a1-2)[Gal(a1-3)]Gal = biological target: Fuc(a1-2)[Gal(a1-3)]Gal
# Procedure, shortened: as §1
# [14] = biological target: Fuc(a1-2)[Gal(a1-3)]Gal(b1-3)GlcNAc
# Procedure, shortened: as §1
# [15] = biological target: Fuc(a1-2)[Gal(a1-3)]Gal(b1-4)Glc
# Procedure, shortened: as §1
# [16] = biological target: Fuc(a1-2)[Gal(a1-3)]Gal(b1-4)GlcNAc
# Procedure, shortened: as §1
# [17] = biological target: Fuc(a1-2)[Gal(a1-3)]Gal(b1-4)[Fuc(a1-3)]GlcNAc
# Procedure, shortened: as §1
# [18] = biological target: Fuc(a1-2)[Gal(a1-4)]Gal(b1-4)GlcNAc
# Procedure, shortened: as §1
# [19] = biological target: Fuc(a1-2)[GalNAc(a1-3)]Gal
# Procedure, shortened: as §1
# [20] = biological target: Fuc(a1-2)[GalNAc(a1-3)]Gal(b1-3)GlcNAc
# Procedure, shortened: as §1
# [21] = biological target: Fuc(a1-2)[GalNAc(a1-3)]Gal(b1-4)Glc
# Procedure, shortened: as §1
# [22] = biological target: Fuc(a1-2)[GalNAc(a1-3)]Gal(b1-4)GlcNAc
# Procedure, shortened: as §1
# [23] = biological target: Fuc(a1-2)[GalNAc(a1-3)]Gal(b1-4)[Fuc(a1-3)]GlcNAc
# Procedure, shortened: as §1
# [24] = biological target: Fuc(a1-2)[GalNAc(a1-4)]Gal(b1-4)GlcNAc
# Procedure, shortened: as §1
# [25] = biological target: Fuc(a1-2)[GalNAc(b1-3)]Gal
# Procedure, shortened: as §1
# Fuc(a1-3)GlcNAc = biological target: Fuc(a1-3)GlcNAc
# Procedure, shortened: as §1
# [26] = biological target: Fuc(a1-3)[Gal(b1-4)]Glc6S
# Procedure, shortened: as §1
# [27] = biological target: Fuc(a1-3)[Gal(b1-4)]GlcNAc
# Procedure, shortened: as §1
# [28] = biological target: Fuc(a1-3)[Gal(b1-4)]GlcNAc(b1-2)Man(a1-3)[Fuc(a1-3)[Gal(b1-4)]GlcNAc(b1-2)Man(a1-6)]Man(b1-4)GlcNAc(b1-4)GlcNAc
# Procedure, shortened: as §1
# [29] = biological target: Fuc(a1-3)[Gal(b1-4)]GlcNAc(b1-2)Man(a1-6)[Gal(b1-4)GlcNAc(b1-2)Man(a1-3)]Man(b1-4)GlcNAc(b1-4)GlcNAc
# Procedure, shortened: as §1
# [30] = biological target: Fuc(a1-3)[Gal(b1-4)]GlcNAc(b1-3)Gal(b1-3)[Fuc(a1-4)]GlcNAc
# Procedure, shortened: as §1
# [31] = biological target: Fuc(a1-3)[Gal(b1-4)]GlcNAc(b1-4)Gal(b1-4)[Fuc(a1-3)]GlcNAc
# Procedure, shortened: as §1
# [32] = biological target: Fuc(a1-3)[Gal(b1-4)]GlcNAc(b1-4)Gal(b1-4)[Fuc(a1-3)]GlcNAc(b1-4)Gal(b1-4)[Fuc(a1-3)]GlcNAc
# Procedure, shortened: as §1
# [33] = biological target: Fuc(a1-3)[Gal(b1-4)]GlcNAc6S
# Procedure, shortened: as §1
# [34] = biological target: Fuc(a1-3)[Gal3S(b1-4)]Glc6S
# Procedure, shortened: as §1
# [35] = biological target: Fuc(a1-3)[Gal3S(b1-4)]GlcNAc
# Procedure, shortened: as §1
# [36] = biological target: Fuc(a1-3)[Gal3S(b1-4)]GlcNAc6S
# Procedure, shortened: as §1
binder,measurement,setting,value
B1,glycan array binding signal (z-score),Fuc(a1-2)Gal,-0.147
same,glycan array binding signal (z-score),Fuc(a1-2)Gal(b1-3)GalNAc,-0.153
same,glycan array binding signal (z-score),[1],-0.146
same,glycan array binding signal (z-score),[2],-0.154
same,glycan array binding signal (z-score),[3],-0.15
same,glycan array binding signal (z-score),Fuc(a1-2)Gal(b1-3)GlcNAc,-0.151
same,glycan array binding signal (z-score),[4],-0.152
same,glycan array binding signal (z-score),[5],-0.154
same,glycan array binding signal (z-score),Fuc(a1-2)Gal(b1-4)Glc,-0.152
same,glycan array binding signal (z-score),Fuc(a1-2)Gal(b1-4)Glc6S,-0.153
same,glycan array binding signal (z-score),Fuc(a1-2)Gal(b1-4)GlcNAc,-0.151
same,glycan array binding signal (z-score),[6],-0.156
same,glycan array binding signal (z-score),[7],-0.143
same,glycan array binding signal (z-score),[8],-0.156
same,glycan array binding signal (z-score),[9],-0.151
same,glycan array binding signal (z-score),[10],-0.154
same,glycan array binding signal (z-score),[11],-0.133
same,glycan array binding signal (z-score),Fuc(a1-2)Gal6S(b1-4)Glc,-0.156
same,glycan array binding signal (z-score),[12],-0.155
same,glycan array binding signal (z-score),[13],-0.155
same,glycan array binding signal (z-score),Fuc(a1-2)[Gal(a1-3)]Gal,-0.138
same,glycan array binding signal (z-score),[14],-0.152
same,glycan array binding signal (z-score),[15],-0.157
same,glycan array binding signal (z-score),[16],-0.149
same,glycan array binding signal (z-score),[17],-0.147
same,glycan array binding signal (z-score),[18],-0.152
same,glycan array binding signal (z-score),[19],-0.143
same,glycan array binding signal (z-score),[20],-0.151
same,glycan array binding signal (z-score),[21],-0.146
same,glycan array binding signal (z-score),[22],-0.153
same,glycan array binding signal (z-score),[23],-0.154
same,glycan array binding signal (z-score),[24],-0.149
same,glycan array binding signal (z-score),[25],-0.145
same,glycan array binding signal (z-score),Fuc(a1-3)GlcNAc,-0.154
same,glycan array binding signal (z-score),[26],-0.154
same,glycan array binding signal (z-score),[27],-0.153
same,glycan array binding signal (z-score),[28],-0.148
same,glycan array binding signal (z-score),[29],-0.147
same,glycan array binding signal (z-score),[30],-0.148
same,glycan array binding signal (z-score),[31],-0.157
same,glycan array binding signal (z-score),[32],-0.155
same,glycan array binding signal (z-score),[33],-0.144
same,glycan array binding signal (z-score),[34],-0.135
same,glycan array binding signal (z-score),[35],-0.152
same,glycan array binding signal (z-score),[36],-0.142
